B1: TPR 5TU (parent)
chain: GGAUCUUCUCGAUCUAACAAAAAAGACAAAUCUGCCACAAAGCUUGAGAGCAUCUUCGGAUGCAGAGGCGGCAGCCUUCGGUGGCGCGAUAGCGCCAACGUUCUCAACUAUGACACGCAAAACGCGUGCUCCGUUGAAUGGAGUUUAUCAUG

Variants at the background level are over-represented here. Where only a bound is given, the exact number is not on record here.

The variants in the data set derive from B1. The data set is described as follows: polymerase ribozyme fitness, log enrichment relative to wild type (log ratio); higher = more active; in vitro selection for triplet polymerase activity. In a few lines:
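Mutant libraries of both subunits of a heterodimeric triplet polymerase ribozyme were PCR-built, transcribed, and selected once in triplicate, with frozen incubation at −7 °C and capture of gel-excised extended constructs on streptavidin beads before RT-PCR. Illumina sequencing of input and output libraries was filtered to genotypes with ≥10 input reads and ≥1 read per output. Fitness is the logarithm of genotype enrichment over wild-type enrichment, using inverse-variance-weighted replicate averages. The logarithm is base 2.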
As to U6G C57A C85A C95U, the “polymerase ribozyme fitness (log ratio)” value was -0.326.

Regarding U7A A64C G74A G80C A91U U139A U148A C149G, the “polymerase ribozyme fitness (log ratio)” value was ≤ -4.2.

Turning to C5G C8G C85A G126U, the “polymerase ribozyme fitness (log ratio)” value was ≤ -4.2.

On to C5U G48C C79A C85U C95G, for which the “polymerase ribozyme fitness (log ratio)” value is ≤ -4.2.

Consider C5U C51A, for which the “polymerase ribozyme fitness (log ratio)” value is -0.999.

As for U6A C10A A40U A47C U56A G94C A115U, the “polymerase ribozyme fitness (log ratio)” value was ≤ -4.2.

For C5U G92A, the “polymerase ribozyme fitness (log ratio)” value was -1.32.

For the variant C5U A23G C32A C51U G84A C95A C99G U146A, the “polymerase ribozyme fitness (log ratio)” value is ≤ -4.2.

In the case of U6C C36U C96U A98C U111G A122G C129U G141U, the “polymerase ribozyme fitness (log ratio)” value is ≤ -4.2.

For the variant U7C A29U A37U U44A G117U A121G U135C A138C, the “polymerase ribozyme fitness (log ratio)” value was ≤ -4.2.

With U6C C57U C95A C108A U139A, the “polymerase ribozyme fitness (log ratio)” value is ≤ -4.2.

Turning to C5G C14A A22C C43A A49C A73G C95A, the “polymerase ribozyme fitness (log ratio)” value is ≤ -4.2.

In the case of U6G G50U C85U C116U, the “polymerase ribozyme fitness (log ratio)” value was determined as 0.202.

Consider U6G G80U G83A G84U C93A C95U C103G G117C, for which the “polymerase ribozyme fitness (log ratio)” value is ≤ -4.2.

Regarding U6A C27A C85G, the “polymerase ribozyme fitness (log ratio)” value was ≤ -4.2.

For C5G U82A C95U, the “polymerase ribozyme fitness (log ratio)” value was -0.788.

Turning to U6A A26C A122C, the “polymerase ribozyme fitness (log ratio)” value was -2.04.

As for C5G A49U C57U C93G C103G U144C, the “polymerase ribozyme fitness (log ratio)” value is ≤ -4.2.

Consider U6A A12U G34A U45A G88A C149U, for which the “polymerase ribozyme fitness (log ratio)” value is ≤ -4.2.

As for C5G A20C G48C U56A G62A, the “polymerase ribozyme fitness (log ratio)” value was -4.11.

On to C5G A60U G65C U77G G86A A91C G126A, for which the “polymerase ribozyme fitness (log ratio)” value is ≤ -4.2.

In the case of U6G U7G C79U A89G C93A G126U, the “polymerase ribozyme fitness (log ratio)” value is ≤ -4.2.

In the case of U7A G48A A73C G88C A107U, the “polymerase ribozyme fitness (log ratio)” value was ≤ -4.2.

Turning to U6G A41U U45C, the “polymerase ribozyme fitness (log ratio)” value was -2.17.

Take U6A G86A C87G: the “polymerase ribozyme fitness (log ratio)” value was ≤ -4.2.

As to U6A A30G A39U U53A C95G C118U, the “polymerase ribozyme fitness (log ratio)” value is ≤ -4.2.

Regarding U6G C75U, the “polymerase ribozyme fitness (log ratio)” value came out at 0.374.

For the variant U7A C85U, the “polymerase ribozyme fitness (log ratio)” value was -2.9.

As to C5G U7C C35A U77A C79A G88U U90G G94U G141A, the “polymerase ribozyme fitness (log ratio)” value was ≤ -4.2.

As for U6G C96U, the “polymerase ribozyme fitness (log ratio)” value was -0.759.

As to C5G U6G U7G C14G A28C A30C G50C C51G A89G C93G G94U C105U C118A G133A, the “polymerase ribozyme fitness (log ratio)” value was ≤ -4.2.

With U7C A41C C85U C99G C132G U139A, the “polymerase ribozyme fitness (log ratio)” value was ≤ -4.2.

Take C5G A21U C38A U45G U56A C57A C114A U144G: the “polymerase ribozyme fitness (log ratio)” value was ≤ -4.2.

Turning to C5G C38U A39C C95A G100C, the “polymerase ribozyme fitness (log ratio)” value is ≤ -4.2.

As to C5U C36G A64U G67C G86U A97C, the “polymerase ribozyme fitness (log ratio)” value was ≤ -4.2.

With U6C A52U C76G A120U U127A, the “polymerase ribozyme fitness (log ratio)” value was ≤ -4.2.

Consider C5G A12U G68C G88U, for which the “polymerase ribozyme fitness (log ratio)” value is ≤ -4.2.

With C5G A21C C35G C85U C99A, the “polymerase ribozyme fitness (log ratio)” value was ≤ -4.2.

U6G U7G C18G U31G C75U A89G G92A U109C G128C: the “polymerase ribozyme fitness (log ratio)” value is ≤ -4.2.

For C5U C75A, the “polymerase ribozyme fitness (log ratio)” value is -4.03.

With U6G A47C C87A, the “polymerase ribozyme fitness (log ratio)” value is ≤ -4.2.

In the case of U6A C54A C85A C96U G133U U146G, the “polymerase ribozyme fitness (log ratio)” value is ≤ -4.2.

For U6A C8G A12U A22G A28C A39U C57G G100U C118A, the “polymerase ribozyme fitness (log ratio)” value is ≤ -4.2.

Take C5G C69G C93U: the “polymerase ribozyme fitness (log ratio)” value was -4.12.

Regarding U6G C99G G141C, the “polymerase ribozyme fitness (log ratio)” value is -2.05.

On to C5G G50U C57U G92C A120G, for which the “polymerase ribozyme fitness (log ratio)” value was -2.75.

Consider C5U C87U, for which the “polymerase ribozyme fitness (log ratio)” value is 0.457.

For the variant U6G A20U A41U U44A U55G G83A G88U A98U A121G U145A, the “polymerase ribozyme fitness (log ratio)” value is ≤ -4.2.

Consider U6C U90C C93G A97U U144C, for which the “polymerase ribozyme fitness (log ratio)” value is ≤ -4.2.

For U7A G11C A26C C87A G100C U151G, the “polymerase ribozyme fitness (log ratio)” value is ≤ -4.2.

For the variant C5U G84A A142U, the “polymerase ribozyme fitness (log ratio)” value is -0.976.

For U6A U61A C93A, the “polymerase ribozyme fitness (log ratio)” value was ≤ -4.2.

With U6G A37G G48U G86A, the “polymerase ribozyme fitness (log ratio)” value is ≤ -4.2.

With U6A A19U G50A U78G G92A U109G, the “polymerase ribozyme fitness (log ratio)” value is ≤ -4.2.

As to U6A A37C C79G, the “polymerase ribozyme fitness (log ratio)” value was ≤ -4.2.

For the variant U6A C54U G58C C85A U134C, the “polymerase ribozyme fitness (log ratio)” value was -1.4.

Regarding U6G U15G A16U U33G G70A G92U C108A A142C U151C, the “polymerase ribozyme fitness (log ratio)” value was ≤ -4.2.

For C5G U82G A91U C114A A119U A121C G133C, the “polymerase ribozyme fitness (log ratio)” value was ≤ -4.2.

For the variant U6G A12U A28C A40C G94C, the “polymerase ribozyme fitness (log ratio)” value was ≤ -4.2.

With U6A C87A, the “polymerase ribozyme fitness (log ratio)” value was ≤ -4.2.

For C5U G68C C85G C125G, the “polymerase ribozyme fitness (log ratio)” value was ≤ -4.2.

On to C5G A39G G88A C131G, for which the “polymerase ribozyme fitness (log ratio)” value was ≤ -4.2.

For the variant U6G U53A, the “polymerase ribozyme fitness (log ratio)” value was -0.949.

As for U6C C36A U61G C93A C95G G117U G140C, the “polymerase ribozyme fitness (log ratio)” value was ≤ -4.2.

As for U6G U44A A91C G94U C149G, the “polymerase ribozyme fitness (log ratio)” value was ≤ -4.2.

Take U7A C10A C51U A52G A73G C87G A138G U148C: the “polymerase ribozyme fitness (log ratio)” value is ≤ -4.2.

C5U A30U C57U G94C C99U G100U G126U C132U: the “polymerase ribozyme fitness (log ratio)” value was ≤ -4.2.

Regarding C5U A12U A30C G59C C125G G126U, the “polymerase ribozyme fitness (log ratio)” value is ≤ -4.2.

Regarding C5G U6C A26U C57U G94U G100U, the “polymerase ribozyme fitness (log ratio)” value is ≤ -4.2.

Turning to U7C A20G G50A C75A G84A U104G A110C, the “polymerase ribozyme fitness (log ratio)” value is ≤ -4.2.

As for C5U U13C C85U U101G C105A U109G A110G, the “polymerase ribozyme fitness (log ratio)” value is ≤ -4.2.

In the case of U6G A40U A49U A66C G94U A98U U134C G140A, the “polymerase ribozyme fitness (log ratio)” value was ≤ -4.2.

Regarding U6A C54A G88C, the “polymerase ribozyme fitness (log ratio)” value was ≤ -4.2.

Turning to U6A A40U A41C U45A G48C G68U, the “polymerase ribozyme fitness (log ratio)” value is ≤ -4.2.

As to U6G U7C A20U A39G A40C G42C G59A G92U C93G A115U C116U, the “polymerase ribozyme fitness (log ratio)” value was ≤ -4.2.

Consider U6A U7A A29G C38U C95G C99A, for which the “polymerase ribozyme fitness (log ratio)” value is ≤ -4.2.

In the case of U6A C35U C54U C63G G80A C93U, the “polymerase ribozyme fitness (log ratio)” value was ≤ -4.2.

For U6G U31C C35U U56G G74C C85A A97U A110U A122U, the “polymerase ribozyme fitness (log ratio)” value was ≤ -4.2.

With U7A A24C G50U A52U C87G, the “polymerase ribozyme fitness (log ratio)” value was ≤ -4.2.

As for U6A U7G C14U G50C U56C C87G A89C G100C A120G C125U, the “polymerase ribozyme fitness (log ratio)” value was ≤ -4.2.

Turning to U6G A30U A73U G74C G86U C87A C118U, the “polymerase ribozyme fitness (log ratio)” value is ≤ -4.2.

Turning to U6C A21U U55A G58A G86A, the “polymerase ribozyme fitness (log ratio)” value was -3.18.

Take U6G U53A C85G G100U G128U U135C G140C: the “polymerase ribozyme fitness (log ratio)” value is ≤ -4.2.
